Values joined by “and” are separate entries in the source; they are usually repeats but may differ in a detail not shown here. Identical values can stand only once.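 The compound was tested at five concentrations on cells cultured in 96-well plates, with a 48-hour exposure period. GI50 marks 50% less growth. TGI marks complete inhibition of growth.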
System: NCI-H322M lung
Experiment: growth of human tumour cells (NCI), 48 h

| SMILES | GI50 | TGI |
| --- | --- | --- |
| CSc1nc2c(c(=O)n1C)CN(C1CCCCC1)C(=O)C(c1ccccc1)N2 (stereo not given) | 22.3 µM | > 100 µM |
| CCOC(=O)/C(=N/Nc1ccccc1)N1C(=S)C=C(C)NN(C)C1=S | – | > 100 µM |
| CCCCCC/C=C\CCCCCCCCCC1=C(CN2CCN(C)CC2)C(=O)C=C(OC)C1=O | – | 27.6 µM |
| O=C(Nc1ccc(Cl)cc1Cl)OC(Cn1cncn1)c1ccc(Cl)cc1Cl (stereo not given) | – | 32.2 µM |
| CCOC(=O)c1nc2ccc(C(F)(F)F)cc2nc1NCc1ccc(OC)c(OC)c1 | – | > 100 µM |
| N#CC(C(=O)/C(=N\NC(N)=O)C(C#N)c1ccccc1)c1ccccc1 (stereo not given) | – | > 100 µM |
| CC(=O)NNc1nc(C)c(C(/C=C/c2ccccc2O)=N/N=C(N)N)s1 | – | > 100 µM |
| CN1CCN(Cc2ccc(NC(=O)c3cncc(C#Cc4cnc(N)c5cccnc45)c3)cc2C(F)(F)F)CC1 | 0.261 µM | > 50 µM |
| Clc1cccc(-c2nnc(-c3nn(-c4ccccc4)c4nc5ccccc5nc34)o2)c1 | – | > 100 µM |
| O=C(Nc1ccc(Cl)c(Cl)c1)C(=O)C(C(=O)c1ccccc1-c1ccccc1)C1OC(=O)c2ccccc21 (stereo not given) | – | 30.3 µM |
| CC(=O)OCC1OC(n2c3c(c(-c4ccc(Cl)cc4)c(C#N)c2=S)CCCC3)C(OC(C)=O)C(OC(C)=O)C1OC(C)=O (stereo not given) | – | > 100 µM |
| COc1cccc(C2c3cc4c(cc3OC(NNS(=O)(=O)c3ccc(C)cc3)C2C)OCO4)c1OC (stereo not given) | – | 58 µM |
| CCc1ccc(COC(=O)C2=C(C)NC(C)=C(C(=O)OCc3ccc(CC)cn3)C2C2=COCCO2)nc1 | – | 80.3 µM |
| O=C1c2ccccc2-c2c1c1ccccc1c(=O)n2CCCNCCn1c2c(c3ccccc3c1=O)C(=O)c1ccccc1-2 | 17.9 µM | 32.4 µM |
| O=C(/C=C/c1cccc([N+](=O)[O-])c1)c1ccc([N+](=O)[O-])cc1 | – | > 100 µM |
| CC1(C)CCCC(C)(C2CCC3(C)C2C(O)CC2C4(C)CCC(O)C(C)(C)C4CCC23C)O1 (stereo not given) | – | > 100 µM |
| Cc1c(N=C/C=C/c2ccccc2)c(=O)n(-c2ccccc2)n1C | – | > 100 µM |
| COc1ccc(/C=C2/SC(Nc3nc(-c4nc(NC5=NC(=O)/C(=C\c6ccc(OC)cc6)S5)sc4C)c(C)s3)=NC2=O)cc1 | 1.11 µM | 4.93 µM |
| CCOc1ccn(-c2ccc(F)cc2)c(=O)c1C(=O)Nc1ccc(Oc2ccnc(N)c2Cl)c(F)c1 | 29.4 µM | > 100 µM |
| Cn1c2ccccc2c(=O)c2c(O)cc3c(c21)C=CC(C)(C)O3 | – | > 25 µM |
| CCCCCc1c(CCCC)c(=O)[nH]c2nc(NC(=O)CCCC)ccc12 | – | > 100 µM |
| CCCCCCCC/C=C/CCCCCCCC1=NC(C)(C)CN1CCO | 1.99 µM | 4.89 µM |

| SMILES | GI50 | TGI |
| --- | --- | --- |
| COc1ccc2c(c1)/C(=C\c1c(Cl)[nH]c3ccccc13)C(=O)N2 | – | 19.2 µM |
| COc1ccc(COC(=O)NCC(=O)NC(C)C(=O)NC(Cc2ccccc2)C(=O)OCc2ccccc2)cc1 (stereo not given) | 27.5 µM and 69.8 µM | 83.1 µM and > 100 µM |
| CN(C)N1C(=O)S/C(=C\c2ccc([N+](=O)[O-])cc2)C1=O | – | > 100 µM |
| CCN(CC)CCCC(C)N/C(=C1\C(=O)NC(=O)\C1=C(/NC(C)CCCN(CC)CC)c1cccc(OC)c1)c1cccc(OC)c1 (stereo not given) | 0.793 µM | 1.93 µM |
| CCCCc1ccc(Nc2nc(OC)c3ncn(C4CC(O)C(CO)O4)c3n2)cc1 (stereo not given) | – | 31.1 µM |
| Cc1cc(=O)n(-c2cc3cccccc-3n2)[nH]1 | – | 67.3 µM |
| CCN(Cc1cccc(Cl)c1)c1ccc(CO)c(Cl)c1 | 11.5 µM | 25.5 µM |
| Cc1cc(Nc2cc(N3CCN(C)CC3)nc(/C=C/c3ccccc3)n2)n[nH]1 | 0.91 µM | > 8.68 µM |
| CC1=C(O)c2ccccc2C(=O)C1=O | – | > 100 µM |
| CCOC(=O)c1nc2cc(C(F)(F)F)ccc2nc1Nc1ccc(C(=O)OC)s1 | – | > 100 µM |
| CCOC(=O)c1c(NC(=S)Nc2ccc(Cl)cc2)sc2c1CCN(C)C2 | – | > 100 µM |
| Cn1c2c(c3ccccc31)CCN1C(=O)CCC21 (stereo not given) | – | > 10 µM |
| CC(=O)NCC1OC2COC(c3ccccc3)OC2C(NC(=O)c2ccccc2)C1OC(=O)c1ccccc1 (stereo not given) | – | > 100 µM |
| O=C1/C(=C/c2ccc(Cl)cc2)CNC/C1=C\c1ccc(Cl)cc1 | 2.3 µM and 4.79 µM | – |
| CCOC(=O)/C=C(/C(=O)OCC)n1ccc(=O)n(Cc2cnnn2COCCOC(C)=O)c1=O | – | > 100 µM |
| CC(C)=CCC[C@@H](C)C1=C(O)C(Nc2ccccc2Cl)=C(C)C(=O)C1=O | – | > 75 µM |
| O=C(c1ccc(Cl)cc1)c1ccc(OCCCOc2ccc(C(=O)c3ccc(Cl)cc3)cc2Cl)c(Cl)c1 | – | > 100 µM |
| C/C(=N\NC(=O)c1ccccc1O)c1cccc(/C(C)=N/NC(=O)c2ccccc2O)n1.O=S(=O)([O-])[O-].[Fe+2] | > 100 µM | > 100 µM |
| COc1ccc(S(=O)(=O)N(CC(=O)O)c2ccccc2)cc1 | – | > 100 µM |
| Nc1ncnc2c1ncn2C1CCC(CP(=O)(O)O)C1 (stereo not given) | – | > 100 µM |
| O=[N+]([O-])c1ccc(-n2nc3ccc4c(no[n+]4[O-])c3n2)cc1 | – | 52.9 µM |
| CCCCCCCCCC[C@H](O)[C@H](O)CC[C@@H](O)[C@H]1CC[C@@H]([C@H]2CC[C@H](CCCCCCC[C@@H](O)CC3=C[C@H](C)OC3=O)O2)O1 | 30.4 µM | > 100 µM |

| SMILES | GI50 | TGI |
| --- | --- | --- |
| CCCCCCCCCCCCOC1C(CNC(=O)C2OC3OC(C)(C)OC3C2NC(=O)CN2CCN(c3ccc(OC)cc3)CC2)OC2OC(C)(C)OC21 (stereo not given) | 8.83 µM | 20.9 µM |
| C=C1C(=O)O[C@H]2C1C[C@@H](OC(C)=O)/C(C)=C/CC[C@@]1(C)O[C@H]21 (stereo not given in full) | – | 34.9 µM |
| CCN(CC)CCCC(C)Nc1c2cc(OC)cc(C)c2nc2c(C)c(Cl)ccc12 (stereo not given) | – | 2.93 µM |
| Cc1ccc2nc(C(C)C)c(=O)[nH]c2c1 | – | > 100 µM |
| CCNC(=O)OCc1c(COC(=O)NCC)c(-c2ccc(Cl)c(Cl)c2)n2c1CCC2 | – | > 100 µM |
| Cc1cn(Cc2ccc(C34CC5CC(CC(C5)C3)C4)c(O)c2)c(=O)[nH]c1=O | 21.2 µM | 45.6 µM |
| N[C@@H]1CCN(c2c(F)cc3c(=O)c(C(=O)O)cn4c3c2Oc2cc3c(ccc5ccccc53)cc2-4)C1 | – | > 69.7 µM |
| O=C1c2ccccc2C2CCC1c1ccccc12 (stereo not given) | – | > 100 µM |
| Oc1c(Cl)cc(Cl)c2ccc(Cn3cc(-c4ccc(C(F)(F)F)cc4)nn3)nc12 | 12.3 µM | 24.8 µM |
| COc1ccc([C@@]23Oc4cc(OC)cc(OC)c4[C@]2(O)[C@H](O)[C@H](C(N)=O)[C@H]3c2ccccc2)cc1 | < 0.0121 µM | 0.0739 µM and 0.0589 µM |
| O=C(c1ccc(Cl)cc1)C(O)c1ccc(Cl)cc1 (stereo not given) | – | > 100 µM |
| Cc1cc(Nc2nc(N[C@@H](C)c3ncc(F)cn3)ncc2Cl)n[nH]1 | 39.1 µM | > 100 µM |
| Cc1c(CCCl)c(N=P(c2ccccc2)(c2ccccc2)c2ccccc2)n2c(nc3ccccc32)c1C#N | – | > 10 µM |
| CC1NC(=O)C2=C1C(=O)NC(=O)C2 (stereo not given) | > 100 µM | > 100 µM |
| COC(C)(C)/C=C/c1[nH]c2ccccc2c1CC(=O)NCCc1cn(C(c2ccccc2)(c2ccccc2)c2ccccc2)cn1 | – | > 100 µM |
| Cc1cc2nc3ccccc3n2c2nc(N)ccc12 | – | > 100 µM |
| COc1ccc2c(c1)CCCN1CCc3ccccc3C21 (stereo not given) | – | > 100 µM |
| O=C(N/N=C/c1cc(Br)cc(Br)c1[O-])c1ccccc1O.O=C(N/N=C/c1cc(Br)cc(Br)c1[O-])c1ccccc1O.[Zn+2] | – | 13.2 µM |
| CC[C@@H](C)/C=C(C)/C=C/C(=O)c1c(O)c(-c2ccc(O)cc2)cn(O)c1=O | 0.33 µM | 14 µM |
| Cc1cc2c(-c3nc4ccccn4c3N)c(O)c(O)cc2c(O)c1-c1c(C)cc2c(-c3nc4ccccn4c3N)c(O)c(O)cc2c1O | 1.57 µM | > 25 µM |
| COC1(OC)C2(Cl)C(Cl)=C(Cl)C1(Cl)C1C2C2CC1(C(=O)O)c1ccccc12 (stereo not given) | – | > 100 µM |

From PubChem BioAssay (NCI)
